Results from publication PMC12136788.
The list shows a part of the results.

B1: chr20:57486015:57486016:+_ENSG00000087460_ENST00000306090|hu_hu|motif|central (ssRNA)
RNA: GGGAGUUCUACAGUCCGACGAUCGUGGCCUUUUUUCCUUUUUCUGUAGGCCGCCUUAAGCUUUCUAAAUUUGGAACAUCGGAGCAAGCUGAAGGGAAAAGGGGGUUUCGCAAAAUCACUCGGGGGAAGGGAAAGGUUGCUUUGCAACAGAGGAUUGAGCAUCA
B2: 90162169_90162289_1694_CDS_ENSMUSG00000044783_ENSMUST00000054674|mouse|control|control (ssRNA)
RNA: GGGAGUUCUACAGUCCGACGAUCCCACACUGCCUUACCAGUAGGUUCAGAAUUGUGCUCUUGAAGGCCAGAGCUCAGCUGAGAAUGGCUGGGGCUCCGUGACGGGCUGCCCUCUGGAGAGGGACAGCUCCUUAGAAGACAGCUCAACAGAGGAUUGAGCAUCA
B3: chrX:71549400:71549401:+_ENSMUSG00000019087_ENSMUST00000019231|mus_hu|mus_mus_mus_hu_False|1_78 (ssRNA)
RNA: GGGAGUUCUACAGUCCGACGAUCGCAGUAGGAAGAGGGAAGCUCUUCAGUCCAGUGGUCACAAAACUGGGAAAGCAACAACACGGACACCGUCCCACCCUCAACCCCCCCACUGGCACAGGGUCACACAAUCUGGGAAGUGAUCAACAGAGGAUUGAGCAUCA
B4: chrX:71549400:71549401:+_ENSMUSG00000019087_ENSMUST00000019231|mus_hu|mus_mus_mus_hu_False|38_108 (ssRNA)
RNA: GGGAGUUCUACAGUCCGACGAUCGCAAGGAAGAGGAGGAAGCUCUUCAGUCCAGUGCGCUGCAGGGUGGGAAAGCAACAACACGGACACCGUCCCACCUCAAUUCCCCCCACUGGCACAGGGUCACACAAUCUGGGUCAAAGACAACAGAGGAUUGAGCAUCA
B5: chr14:103803487:103803488:+_ENSG00000100664_ENST00000558506|hu_mus|hu_hu_hu_mus_True|8_28 (ssRNA)
RNA: GGGAGUUCUACAGUCCGACGAUCGAGUUUAUGAUGUGUGUCAAGCAUGCCUCGGUACCCACAGGCUUUACAAGAAUUACCUAUUGUUUGCUUCUUUGGAUUGACAUGCAAAUCUGUUUCAGGAUUCUCACAUUCAGGACAGAGCAACAGAGGAUUGAGCAUCA
B6: 11916292_11920806_271_3pUTR_ENSMUSG00000022205_ENSMUST00000022816|mouse|control|control (ssRNA)
RNA: GGGAGUUCUACAGUCCGACGAUCAACACUGACAUAUCUCAUCUUUCCAAUCUGGAACAUGUUGUCAUCUCUGCUGCUGCUGCUCUGCUUGGAGGAUGCCAGUGCUCUAGAAGUCUCACCAGGCUUCUGCUUCUUCACGGGCUUCAACAGAGGAUUGAGCAUCA

Each binder was assayed against T1, UNK ZnF1-3 (human, UniProt Q9C0B0 31-174) (assay: nsRBNS (natural sequence RNA bind-n-seq); RBNS binding buffer (assumed for nsRBNS): 25 mM Tris pH 7.5, 150 mM KCl, 3 mM MgCl2, 0.01% Triton X-100, 500 ug/ml BSA, 20 U/ml SUPERase-In, 4 C; UNK is unkempt and MSI1 is Musashi-1; names of the RNAs are library labels; protein concentration not given here; high values mean tight binding).
T1 sequence: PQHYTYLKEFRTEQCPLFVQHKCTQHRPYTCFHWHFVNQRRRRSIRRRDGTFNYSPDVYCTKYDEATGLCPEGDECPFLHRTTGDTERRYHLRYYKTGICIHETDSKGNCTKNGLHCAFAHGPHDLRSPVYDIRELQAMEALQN

| Binder | binding signal [enrichment R] |
| --- | --- |
| B1 | 1.55 |
| B2 | 0.899 |
| B3 | 1.47 |
| B4 | 1.44 |
| B5 | 1.33 |
| B6 | 0.575 |
